Measured values reported in the supplement of paper PMC6531468.
Some of the results follow. Values come from read counts of a selection and are noisy. Each score is taken over the longer molecules that contain the sequence shown.

Key:
Assay in all cases: 6-mer SELEX enrichment z-score vs GST control; IMP3 is the RNA-binding protein IGF2BP3; higher = more enriched by binding
IMP3 KH1-4 = details: construct: KH1-4 (164-579); SELEX round: R4
Procedure: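 SELEX-seq with GST-tagged IMP3 KH1-4 (Pro164-Lys579) and an N40 RNA pool, round 4. 6-mer z-score of sequence-tag enrichment normalised to the corresponding GST SELEX round; RNA k-mers written as DNA (T for U).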

IMP3 RRM1-2 = details: construct: RRM1-2 (1-163); SELEX round: R2
Procedure: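 SELEX-seq with GST-tagged IMP3 RRM1-2 (Met1-Asn163) and an N40 RNA pool, round 2. 6-mer enrichment z-score normalised to GST SELEX. RNA written as DNA (T = U).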

IMP3 full-length = IMP3 full-length (UniProt O00425); details: construct: FL IMP3 (1-579); SELEX round: R4
Procedure: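 SELEX-seq with GST-tagged full-length IMP3 and an N40 RNA pool, round 4. Each 6-mer is scored as an enrichment z-score of sequence tags containing it, normalised to the matching GST SELEX round. RNA written as DNA (T = U).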

IMP3 KH3-4 = details: construct: KH3-4 (377-579); SELEX round: R4
Procedure: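 SELEX-seq with GST-tagged IMP3 KH3-4 (Pro377-Lys579) and an N40 RNA pool, round 4. 6-mer z-score of sequence-tag enrichment normalised to the corresponding GST SELEX round; RNA k-mers written as DNA (T for U).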

Chain of IMP3 KH3-4 (chain, as listed by the source): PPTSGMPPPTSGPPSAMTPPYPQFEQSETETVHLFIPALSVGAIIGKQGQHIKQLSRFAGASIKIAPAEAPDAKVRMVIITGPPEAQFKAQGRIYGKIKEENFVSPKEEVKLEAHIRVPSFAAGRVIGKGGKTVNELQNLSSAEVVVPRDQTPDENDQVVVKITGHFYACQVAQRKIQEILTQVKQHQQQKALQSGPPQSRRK
Chain of UniProt O00425 (O00425 whole entry): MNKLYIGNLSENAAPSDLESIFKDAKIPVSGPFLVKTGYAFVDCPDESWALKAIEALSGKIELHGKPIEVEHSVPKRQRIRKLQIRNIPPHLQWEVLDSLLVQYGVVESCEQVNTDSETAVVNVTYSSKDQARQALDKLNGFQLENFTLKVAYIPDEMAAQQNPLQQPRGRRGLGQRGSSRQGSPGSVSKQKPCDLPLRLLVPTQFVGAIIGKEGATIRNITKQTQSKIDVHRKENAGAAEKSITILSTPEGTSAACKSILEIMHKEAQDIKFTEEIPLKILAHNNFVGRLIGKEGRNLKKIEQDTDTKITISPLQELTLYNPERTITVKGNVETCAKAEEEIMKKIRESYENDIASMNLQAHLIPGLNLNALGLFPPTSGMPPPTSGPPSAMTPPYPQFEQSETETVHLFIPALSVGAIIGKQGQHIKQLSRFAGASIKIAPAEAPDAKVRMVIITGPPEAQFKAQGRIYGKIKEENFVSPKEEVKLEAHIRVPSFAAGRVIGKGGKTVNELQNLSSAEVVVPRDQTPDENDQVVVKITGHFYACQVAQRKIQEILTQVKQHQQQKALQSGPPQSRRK
Chain of IMP3 KH1-4 (chain, as listed by the source): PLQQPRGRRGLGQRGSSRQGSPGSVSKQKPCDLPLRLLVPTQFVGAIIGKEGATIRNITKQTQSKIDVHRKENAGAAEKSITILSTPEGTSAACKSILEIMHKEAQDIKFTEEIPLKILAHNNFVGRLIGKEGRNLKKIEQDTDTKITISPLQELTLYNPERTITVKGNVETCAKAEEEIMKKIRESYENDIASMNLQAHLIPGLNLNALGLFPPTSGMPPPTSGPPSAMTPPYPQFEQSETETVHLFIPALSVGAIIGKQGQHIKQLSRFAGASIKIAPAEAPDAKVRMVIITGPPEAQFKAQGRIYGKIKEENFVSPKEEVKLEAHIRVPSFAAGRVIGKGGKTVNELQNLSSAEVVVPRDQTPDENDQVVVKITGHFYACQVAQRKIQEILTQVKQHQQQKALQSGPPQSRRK
Chain of IMP3 RRM1-2 (chain, as listed by the source): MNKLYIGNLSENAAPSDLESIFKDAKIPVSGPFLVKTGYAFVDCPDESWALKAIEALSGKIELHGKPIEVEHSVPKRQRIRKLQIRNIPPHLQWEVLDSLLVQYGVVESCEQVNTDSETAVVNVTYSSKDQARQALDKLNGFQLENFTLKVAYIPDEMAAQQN

| Sequence | 6-mer SELEX enrichment z-score (IMP3 KH1-4) | 6-mer SELEX enrichment z-score (IMP3 RRM1-2) | 6-mer SELEX enrichment z-score (IMP3 full-length) | 6-mer SELEX enrichment z-score (IMP3 KH3-4) |
| --- | --- | --- | --- | --- |
| GGTAAG | 0.186 | -0.151 | 0.049 | 0.342 |
| ATCCAA | -1.26 | -0.36 | -1.06 | -1.47 |
| TACCAT | 0.415 | 0.301 | 0.168 | 0.099 |
| AAAGAG | -1.14 | -1.77 | -1.58 | -0.226 |
| TGAGTG | -0.988 | -0.151 | -0.885 | -0.753 |
| CATTCT | 0.877 | 0.944 | 0.882 | 0.605 |
| AATGCC | -0.705 | -0.962 | -1.08 | -0.95 |
| CTAGGC | 0.137 | 0.51 | 0.467 | 0.128 |
| GTAAGT | 0.072 | -0.107 | -0.121 | 0.192 |
| GCACTT | 0.5 | 0.522 | 0.579 | 0.237 |
| GTTTCC | -0.424 | 0.164 | -0.303 | -0.421 |
| GTTGCC | -0.732 | 0.015 | -0.471 | -0.783 |
| GAGGTC | 0.334 | -0.016 | 0.586 | 0.362 |
| CCGTAC | -0.753 | -0.407 | -0.155 | -1.04 |
| ACTAGA | 0.21 | -0.598 | -0.514 | 0.358 |
| ACTGAA | 0.472 | -1.19 | -0.77 | 0.573 |
| CCCCGA | -1.88 | -1.43 | -1.49 | -2.25 |
| CTTTGA | -0.006 | -0.246 | -0.407 | 0.049 |

| Sequence | 6-mer SELEX enrichment z-score (IMP3 KH1-4) | 6-mer SELEX enrichment z-score (IMP3 RRM1-2) | 6-mer SELEX enrichment z-score (IMP3 full-length) | 6-mer SELEX enrichment z-score (IMP3 KH3-4) |
| --- | --- | --- | --- | --- |
| CGAGCC | -3.19 | -0.711 | -1.02 | -2.95 |
| GAACCC | -1.77 | -1.62 | -1.65 | -2.28 |
| AGTCCC | -0.272 | -0.435 | -0.171 | -0.865 |
| AGTCCG | 0.338 | -0.06 | 0.424 | -0.232 |
| AGGCTG | 0.338 | 0.2 | 0.506 | 0.321 |
| CGGGAC | -0.588 | -0.566 | -0.046 | -0.604 |
| GGCTCG | -0.189 | 0.501 | 0.388 | -0.014 |
| TTAATC | 0.782 | 0.246 | 0.11 | 0.929 |
| AGATTC | 0.554 | -0.031 | 0.18 | 0.605 |
| AAGTGT | -0.557 | -0.338 | -0.679 | -0.354 |
| TTTGTC | 0.224 | 0.402 | 0.067 | 0.286 |
| ATGGAC | 0.784 | -0.496 | 0.067 | 0.394 |
| AACCCA | -3.05 | -1.3 | -2.72 | -3.65 |
| CCTTGT | -0.206 | 0.007 | -0.324 | -0.28 |
| TGGGTA | -0.056 | 0.368 | 0.13 | 0.203 |
| GAACGT | -2.07 | -0.913 | -1.45 | -1.84 |
| ATGAGT | 0.05 | -0.034 | -0.275 | 0.207 |
| GCTAAT | 0.308 | -0.011 | -0.011 | 0.547 |
